# In paper PMC4336329 (PLoS ONE, 2015):
# About 14,000 (4.5%) of roughly 310,000 compounds showed an effect of 50% or more. Effects have a minus sign here. The list shows a part of the results.
# Biological target: human ether-à-go-go-related gene (hERG) potassium channel (human, UniProt Q12809)
# Test: primary screen, population patch clamp on CHO cells stably expressing hERG
# 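Also: peak tail current of the secondary pulse compared with the same well before compound.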
# Sequence of human ether-à-go-go-related gene (hERG) potassium channel (Q12809 whole entry, looked up): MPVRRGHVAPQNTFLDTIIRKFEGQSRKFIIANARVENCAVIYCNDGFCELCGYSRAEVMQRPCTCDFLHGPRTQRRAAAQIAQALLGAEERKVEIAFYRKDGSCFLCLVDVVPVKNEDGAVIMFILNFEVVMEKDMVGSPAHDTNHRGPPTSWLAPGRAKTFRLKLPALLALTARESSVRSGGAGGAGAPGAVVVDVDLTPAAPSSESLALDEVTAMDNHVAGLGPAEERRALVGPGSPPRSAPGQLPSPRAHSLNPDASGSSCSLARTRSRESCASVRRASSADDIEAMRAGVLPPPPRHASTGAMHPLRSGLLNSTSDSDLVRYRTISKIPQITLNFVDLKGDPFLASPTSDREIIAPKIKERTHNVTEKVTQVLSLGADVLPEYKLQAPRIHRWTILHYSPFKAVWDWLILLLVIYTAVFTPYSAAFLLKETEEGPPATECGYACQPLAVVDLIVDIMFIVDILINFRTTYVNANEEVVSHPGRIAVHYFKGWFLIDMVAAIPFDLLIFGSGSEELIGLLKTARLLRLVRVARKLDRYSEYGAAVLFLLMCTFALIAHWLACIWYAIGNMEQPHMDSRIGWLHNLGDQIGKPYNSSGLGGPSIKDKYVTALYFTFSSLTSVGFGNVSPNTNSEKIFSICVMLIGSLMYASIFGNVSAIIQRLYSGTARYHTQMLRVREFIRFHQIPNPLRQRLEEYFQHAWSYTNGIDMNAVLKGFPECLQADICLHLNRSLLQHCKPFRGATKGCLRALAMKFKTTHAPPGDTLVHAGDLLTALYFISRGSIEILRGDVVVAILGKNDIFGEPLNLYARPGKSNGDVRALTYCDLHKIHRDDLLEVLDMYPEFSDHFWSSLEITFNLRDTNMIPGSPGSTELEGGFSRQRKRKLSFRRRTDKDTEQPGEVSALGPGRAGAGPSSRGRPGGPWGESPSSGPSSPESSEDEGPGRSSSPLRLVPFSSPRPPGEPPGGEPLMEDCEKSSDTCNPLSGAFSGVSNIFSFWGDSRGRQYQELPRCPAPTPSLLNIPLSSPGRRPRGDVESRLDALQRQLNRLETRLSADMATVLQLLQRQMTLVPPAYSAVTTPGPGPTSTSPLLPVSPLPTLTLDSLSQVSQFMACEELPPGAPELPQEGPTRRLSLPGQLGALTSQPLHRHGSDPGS
row,SMILES,"hERG current change (%, negative = inhibition) at 10uM"
1,Cc1nc2ccc(F)cc2cc1C(=O)Nc1cccc(Cl)c1C,17.2%
2,CCCCN1C(=O)C(=O)N(CC(=O)c2cc(C)n(C3CC3)c2C)C1=O,-10.1%
3,CCC(=O)N(C)/C=C1\Sc2ccccc2C1=O,-1.74%
4,CC(C)Oc1ccc(NC(N)=O)cc1,1.14%
5,Cc1ccccc1-n1nnnc1-c1ccccc1,-11.6%
6,O=c1c2ccccc2c(/C=N/c2ncn[nH]2)c(O)n1Cc1ccccc1,11.3%
7,O=c1[nH]oc2cc(Cl)ccc12,11.3%
8,O=C(C1CC1)N1N=C2CCCCC2C1(O)C(F)(F)F (stereo not shown),33.6%
9,COc1ccc(N2CC(O)=C(c3nc(-c4ccc(F)cc4)cs3)C2=N)cc1Cl,4.03%
10,COc1ccc([C@@H]2C(C#N)=C(N)S[C@@H](c3ccccc3)[C@@H]2[N+](=O)[O-])cc1,-13.4%
11,Cc1nccc(-c2cccc(N/N=C(\C#N)C(=O)c3ccccc3)c2)n1,-6.62%
12,N#Cc1ccc(OCC(=O)Nc2cccc(S(=O)(=O)NC3=NCCCCC3)c2)cc1,-19.9%
13,CCOc1ccc(-c2cc(C(=O)N/N=C(\C)c3cccnc3)c3ccccc3n2)cc1,10.6%
14,O=C(NCc1ccc(OC(F)(F)F)cc1)C1CC(c2ccc(C(F)(F)F)cc2)=NO1 (stereo not shown),9.59%
15,CN(C)S(=O)(=O)c1cccc(NC(=O)c2ccc3c(c2)OCCO3)c1,5.56%
16,CO/N=C/NC(=O)NOCc1ncc(C(F)(F)F)cc1Cl,0.271%
17,COc1ccc(N2CCN(CCCNC(=O)CN3C(=O)COc4ccccc43)CC2)cc1,-35.2%
18,COc1ccccc1/C=N/NC(=O)c1ccc(N(C)S(=O)(=O)c2ccccc2)cc1,-4.39%
19,O=C(CN(CCc1ccccc1)C(=O)c1csnn1)NC1CCCC1,-4.71%
20,C/C(=N\O)C(=O)NCc1ccncc1,13%

row,SMILES,"hERG current change (%, negative = inhibition) at 10uM"
1,CCOC(=O)C(Cc1ccccc1)C(=O)c1ccco1 (stereo not shown),8.4%
2,COc1ccc(C(=O)Nc2nnc(-c3ccccc3)o2)cc1OC,2.94%
3,COCC(=O)N1CCC(Oc2ccc(C(=O)N3CCCCCC3)cc2)CC1,12.1%
4,CC(C)c1ccc(NC(=O)C2CCC(CNC(=O)[C@@H]3Cc4ccccc4CN3)CC2)cc1 (stereo partly shown),9.65%
5,N#Cc1ccccc1NC(=O)CN1CCOCC1,13.4%
6,COc1ccc(NC(=O)Nc2ccc3c(c2)CCC3)cc1OC,19.9%
7,C=CCN1C(=O)C(Cc2ccccc2)SC1=Nc1ccc(C(=O)O)cc1 (stereo not shown),-3.37%
8,O=C(CCSc1nnc(-c2ccccc2)o1)N1CCOCC1,-5.66%
9,CC(C)NC(=O)c1cc(=O)n(C)c(=O)n1C,12.7%
10,O=C(Nc1nc2ccccc2[nH]1)c1ccc(Cl)c([N+](=O)[O-])c1,0.857%
11,COc1ccc(CNC(=O)C2CC(c3cccc(OC)c3)=NO2)cc1 (stereo not shown),-12.2%
12,Clc1ccc(OCCSc2ncccn2)c(Br)c1,24.1%
13,CCOP(=O)(OCC)C(O)c1ccc(OC)c(OC)c1 (stereo not shown),15.6%
14,CN(Cc1cn(C)nc1-c1ccccc1F)CC1CCCCO1 (stereo not shown),-2.75%
15,COc1cc2c(cc1OC)CN(C(=O)CSc1n[nH]c(N)n1)CC2,8.23%
16,CC(/C=N/n1c(-c2cc(C)[nH]n2)n[nH]c1=S)=C\c1ccccc1,14.7%
17,CCOC(=O)C(NC(=O)CC)(Nc1ccc(C(O)(C(=O)OCC)C(F)(F)F)cc1C)C(F)(F)F (stereo not shown),-2.45%
18,Cc1cccc(CN2CCCC(C(=O)N3CCCCC3)C2)c1.O=C(O)C(=O)O (stereo not shown),15.5%
19,COC(=O)COc1ccc(S(=O)(=O)NCc2ccco2)cc1,8.99%
20,CCN(CC)S(=O)(=O)c1ccc(-c2nnc(SCC(=O)N3c4ccccc4CC3C)n2CC)cc1 (stereo not shown),12.2%

row,SMILES,"hERG current change (%, negative = inhibition) at 10uM"
1,Cc1cccc(OCCCN2CCOCC2)c1C,11.2%
2,Cc1cc(NC(=O)CCC(=O)N(C2CC2)C2(C(=O)NC3CCCC3)CCC(C)CC2)no1 (stereo not shown),-3.43%
3,O=C(NC1CCCCC1)C(c1ccc(F)cc1)N(C(=O)c1csnn1)C1CC1 (stereo not shown),13.2%
4,Cc1c(NC(=S)N2CCN(c3ccc(F)cc3)CC2)c(=O)n(-c2ccccc2)n1C,2.39%
5,O=C(CN1C(=O)NC2(CCCCCCC2)C1=O)NC1CCCc2ccccc21 (stereo not shown),3.29%
6,O=[N+]([O-])c1cccnc1N1CCC(c2cc(-c3cccc(C(F)(F)F)c3)n[nH]2)CC1,-13.7%
7,CN1C(=O)C(C)(C)c2cc(S(=O)(=O)NCC3CCC(C(=O)NCc4ccccc4)CC3)ccc21 (stereo not shown),18.5%
8,Cc1cc(NC(=O)CSCC(=O)OCC(=O)Nc2ccc(OC(F)F)cc2)no1,-6.01%
9,COc1ccccc1/C=C/C(=O)NC(=S)Nc1ccc(S(=O)(=O)N(C)c2ccccc2)cc1,11.6%
10,CNc1cc(C)nc(-n2nc(C)cc2C)n1,-10.3%
11,COC(=O)CN1C(=O)COc2ccc(S(=O)(=O)NCc3ccccc3)cc21,1.23%
12,O=C(C[n+]1cn(C(F)F)c2ccccc21)c1ccc(OC(F)F)cc1.[Br-],-74.9%
13,COc1ccccc1NC(=O)c1cc[n+](C)cc1.[I-],18.4%
14,COc1ccc(Nc2cc(C)nc3nc(C)nn23)c(OC)c1,-4.34%
15,Cc1cnc(-n2c(=S)[nH]c3ccccc3c2=O)s1,-1.3%
16,Cc1sc(NC(=O)COc2cccc(-n3cnnn3)c2)c(C#N)c1C,-0.605%
17,Cc1ccc2[nH]c(C(F)(F)F)cc(=O)c2c1,15.4%
18,O=C(NCC(c1ccc(F)cc1)N1CCOCC1)c1cccnc1Sc1ccc(Cl)cc1 (stereo not shown),-34.5%
